Data published in PubChem BioAssay AID2528 (National Center for Advancing Translational Sciences (NCATS), 2010).
Values joined by “and” are separate entries in the source; they are usually repeats but may differ in a detail not shown here. Identical values can stand only once. About 700 (0.2%) of roughly 350,000 compounds were called active. The inconclusive results got no clear call from the source; some entries with a clear call stand among them for comparison. Calls follow the shape of the dose curve; as a rule, active = well fitted inhibition curve with a large enough effect; inconclusive = small, poorly fitted or top-dose-only effect; inactive = flat fitted curve, though single readings scatter. No potency is given beside an inconclusive call; the fits are too rough.
Also: nearly all actives have a fitted effect of over 35% in size.
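For activity change, negative = inhibition in this document: plate controls were vehicle for no effect and no enzyme for full effect.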
Potency is read from the fitted curve at half-maximal effect; tags tell the direction and shape of the fitted curve.

These molecules were tested against RecQ-like DNA helicase BLM (Homo sapiens) (UniProt P54132) (assay: qHTS Assay for Inhibitors of Bloom's syndrome helicase (BLM)). Settings: recombinant BLM DNA unwinding, fluorescence dequenching; series mostly up to 56.1 µM.
UniProt P54132, sequence (P54132 whole entry, looked up): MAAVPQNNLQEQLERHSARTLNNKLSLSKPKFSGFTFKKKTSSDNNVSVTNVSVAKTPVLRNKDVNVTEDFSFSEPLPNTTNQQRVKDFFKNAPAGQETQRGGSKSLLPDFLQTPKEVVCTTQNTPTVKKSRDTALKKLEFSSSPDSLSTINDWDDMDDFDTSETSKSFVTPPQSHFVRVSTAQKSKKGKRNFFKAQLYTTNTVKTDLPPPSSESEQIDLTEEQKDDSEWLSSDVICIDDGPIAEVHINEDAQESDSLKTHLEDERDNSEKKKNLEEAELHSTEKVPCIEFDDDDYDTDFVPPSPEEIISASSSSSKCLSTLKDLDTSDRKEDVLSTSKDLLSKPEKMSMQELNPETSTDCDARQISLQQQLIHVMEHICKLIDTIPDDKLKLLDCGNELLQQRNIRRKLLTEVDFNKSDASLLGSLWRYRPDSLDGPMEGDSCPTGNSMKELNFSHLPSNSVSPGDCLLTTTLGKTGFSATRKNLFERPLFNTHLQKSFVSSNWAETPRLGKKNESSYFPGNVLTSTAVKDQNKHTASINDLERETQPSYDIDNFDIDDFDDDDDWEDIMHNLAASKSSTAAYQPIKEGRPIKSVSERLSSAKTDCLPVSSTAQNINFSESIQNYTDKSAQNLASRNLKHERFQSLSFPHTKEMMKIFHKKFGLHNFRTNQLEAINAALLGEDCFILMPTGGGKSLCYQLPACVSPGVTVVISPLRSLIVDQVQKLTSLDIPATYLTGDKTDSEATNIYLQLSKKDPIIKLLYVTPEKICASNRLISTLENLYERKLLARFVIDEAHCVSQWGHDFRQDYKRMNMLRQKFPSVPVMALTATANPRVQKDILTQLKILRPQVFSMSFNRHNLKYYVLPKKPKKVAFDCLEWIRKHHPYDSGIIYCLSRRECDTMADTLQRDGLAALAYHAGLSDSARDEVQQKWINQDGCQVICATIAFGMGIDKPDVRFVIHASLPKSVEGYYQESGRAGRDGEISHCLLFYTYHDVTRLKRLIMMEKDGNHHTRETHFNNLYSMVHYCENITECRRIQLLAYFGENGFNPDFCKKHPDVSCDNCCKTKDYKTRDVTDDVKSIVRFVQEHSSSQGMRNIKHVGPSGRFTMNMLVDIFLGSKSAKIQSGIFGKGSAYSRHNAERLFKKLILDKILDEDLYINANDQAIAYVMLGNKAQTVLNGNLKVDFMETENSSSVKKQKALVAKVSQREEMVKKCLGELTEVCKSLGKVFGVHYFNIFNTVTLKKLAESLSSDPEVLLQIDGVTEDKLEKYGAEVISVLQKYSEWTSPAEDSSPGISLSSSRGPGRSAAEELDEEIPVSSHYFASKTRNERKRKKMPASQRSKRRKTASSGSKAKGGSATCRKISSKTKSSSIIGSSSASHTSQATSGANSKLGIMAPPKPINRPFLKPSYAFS
With `Cc1ccc(C2C3=C(Nc4[nH]n(-c5ccccc5)c(=O)c42)c2ccccc2C3=O)cc1` (stereo not drawn) the Potency was inconclusive [inhibitor, partial curve]. With `Cc1cc(C)c2c(c1)/C(=N/Nc1ccc(S(N)(=O)=O)cc1[N+](=O)[O-])CCC2` the Potency was “inactive”. For `CCOC(=O)C1=C(O)/C(=C/c2ccc(CNC(=O)C(=O)Nc3ccc(C)cc3)o2)N=C1C`, the Potency was inconclusive [inhibitor, single point]. In the case of `Cc1cc(/C=N/Nc2ccc([N+](=O)[O-])cn2)c(C)n1-c1ccc(C(=O)O)cc1`, the Potency is reported as inconclusive [inhibitor, single point]. `Oc1ccc(CN2CCC(Cc3ccccc3)CC2)c2cccnc12` was tested, and the Potency was active: 8.91 µM. `C=CCn1c(NC(=O)c2ccc(Br)o2)c(S(=O)(=O)c2ccccc2)c2nc3ccccc3nc21` was tested, and the Potency was inconclusive [inhibitor, single point]. `COc1ccccc1-n1cnc2c(c1=O)c1nc3ccccc3nc1n2-c1ccc(C)c(C)c1` was tested, and the Potency was inconclusive [inhibitor, single point]. For `COC(=O)c1cc(NC(=O)c2ccc3c(c2)NC(=O)c2ccccc2S3)cc(C(=O)OC)c1`, the Potency was inconclusive [inhibitor, partial curve]. With `O=C(CCc1c[nH]c2ccccc12)NC(Cc1c[nH]c2ccccc12)C(=O)O` (stereo not drawn) the Potency was active: 31.6 µM. For `C=CC[n+]1ccc(/C=C2\C=Cc3cc(C)ccc3N2CC)c2ccccc21`, the Potency was inconclusive [inhibitor, single point]. In the case of `CCSc1nnc(NC(=O)C2Cc3ccccc3CN2C(=O)c2ccco2)s1` (stereo not drawn), the Potency is reported as “inactive”. For `COc1ccc(Nc2nc(N3CCCC3)c3ccccc3n2)cc1`, the Potency was “inactive”. With `O=C(NC1CCCC1)c1ccc2nc(-c3ccco3)c(-c3ccco3)nc2c1` the Potency was inconclusive [inhibitor, partial curve]. With `NS(=O)(=O)c1cc(C(=O)N=Nc2c(O)[nH]c3ccccc23)ccc1Cl` the Potency was inconclusive [inhibitor, partial curve]. With `O=c1oc2cc([N+](=O)[O-])ccc2nc1/C=C(O)/C=C/c1ccccc1` the Potency was inconclusive [inhibitor, single point]. `COc1ccc(Oc2ncc3nc(-c4ccc(OC)cc4)c(=O)n(C4CC4)c3n2)cc1` was tested, and the Potency was “inactive”. In the case of `CC(C)CCCC(C)CCCC(C)CCCC(C)C(=O)O` (stereo not drawn), the Potency is reported as inconclusive [inhibitor, single point]. In the case of `CCOC(=O)C1CCN(C(=O)Nc2ccc3nc(-c4ccco4)c(-c4ccco4)nc3c2)CC1`, the Potency is reported as active: 4.47 µM. For `CC1=CSC2=NC(=O)/C(=C\c3cccn3-c3ccccc3)C(=N)N12`, the Potency was “inactive”. In the case of `O=C(N/N=C/c1ccccc1C(=O)O)c1ccc(COc2cccc3cccnc23)cc1`, the Potency is reported as “inactive”. In the case of `COc1ccc(/C=N/NC(=O)c2ccccc2OC)cc1COc1ccccc1[N+](=O)[O-]`, the Potency is reported as inconclusive [inhibitor, partial curve]. With `O=C(CSc1nnc(SCc2ccc(Cl)cc2)s1)N/N=C/c1c[nH]c2ccccc12` the Potency was inconclusive [inhibitor, partial curve]. `CCOc1ccccc1C1N=C(N)Nc2nc3ccccc3n21` (stereo not drawn) was tested, and the Potency was “inactive”. For `CN(C)[C@H]1C(=O)C(C(=O)NCN2CCCC2)=C(O)[C@]2(O)C(=O)C3=C(O)c4c(O)cccc4[C@](C)(O)[C@H]3C[C@H]12`, the Potency was active: 14.1 µM. In the case of `CCn1nc([N+](=O)[O-])c(C(C#N)c2nc3cc(C(F)(F)F)ccc3s2)c(Cl)c1=O` (stereo not drawn), the Potency is reported as inconclusive [inhibitor, single point]. In the case of `CCc1ccc(-n2c(-c3ccccc3)c(C)n3c4c(=O)n(C)c(=O)n(C)c4nc23)cc1`, the Potency is reported as “inactive”. For `O=C(O)CCNc1ccc(NCCC(=O)O)c2c1C(=O)c1ccccc1C2=O`, the Potency was inconclusive [inhibitor, partial curve]. With `COc1ccc(C2Nc3ccc(Br)cc3C(c3ccccc3)N2CC(=O)O)cc1` (stereo not drawn) the Potency was “inactive”. In the case of `COc1cc2[nH]c(Cl)c([N+](=O)[O-])c2cc1OC`, the Potency is reported as inconclusive [inhibitor, single point]. In the case of `O=C(Nc1nnc2n1CCS2)c1ccc(F)cc1F`, the Potency is reported as “inactive”. In the case of `COc1cccc(C(=O)NCC(c2ccc3c(c2)OCO3)N2CCOCC2)c1` (stereo not drawn), the Potency is reported as “inactive”. `COCCCNC(=O)CC(C)c1ccccc1` (stereo not drawn) was tested, and the Potency was “inactive”. For `Cc1cc(C)c2nc(-c3ccccn3)cc(C(=O)Nc3ccc(S(=O)(=O)Nc4onc(C)c4C)cc3)c2c1`, the Potency was inconclusive [inhibitor, single point]. `O=C(CSc1n[nH]c(=O)[nH]c1=O)Nc1ccc2c(c1)C(=O)c1ccccc1C2=O` was tested, and the Potency was active: 12.6 µM. In the case of `Cc1oc(C)c2c(=O)ccc3c(c12)OC(N)=C(C#N)C3c1ccccc1Cl` (stereo not drawn), the Potency is reported as inconclusive [inhibitor, single point]. With `C[C@@H](c1ccccc1)N1C(=O)[C@H]2[C@@H]3[C@H](O)[C@H](O)CC(=O)[C@H]3CC[C@H]2C1=O` the activity change, negative = inhibition was inactive: -3.04% [at 12.4 µM] and inactive: -1.24% [at 12.4 µM]. With `O=C1C(N2CCOCC2)=C(n2nnc3ccccc32)C(=O)c2ccccc21` the Potency was active: 35.5 µM. In the case of `CCOC(=O)c1sc(NC(=O)C2CC=CCC2C(=O)O)nc1C` (stereo not drawn), the Potency is reported as “inactive”. With `CCCCCN(CCCCC)C(=O)C(CCC(=O)O)NC(=O)c1ccc(Cl)c(Cl)c1` (stereo not drawn) the Potency was inconclusive [inhibitor, full curve, poor fit]. In the case of `c1csc(-c2cn3ccc4ccccc4c3n2)c1`, the Potency is reported as inconclusive [inhibitor, single point]. `Cc1ccc2nc3c(cc2c1)c(C)nn3-c1ccccc1` was tested, and the Potency was “inactive”. `Cc1ccc(-n2c(O)c(C=Nc3ccccc3-c3n[nH]c(=S)[nH]c3=O)c3ccccc3c2=O)cc1C` was tested, and the Potency was inconclusive [inhibitor, single point]. With `C=CCn1c(CSc2nc3ccccc3s2)nnc1SCC(=O)NCc1ccco1` the Potency was inconclusive [inhibitor, single point]. `CC(=O)c1cccc(NC(=O)CCc2nnc3ccc(NCc4ccco4)nn23)c1` was tested, and the Potency was inconclusive [inhibitor, partial curve]. In the case of `O=C(Nc1ccc(Sc2ccc(Br)cc2)cc1)c1ccco1`, the Potency is reported as inconclusive [inhibitor, partial curve]. For `Cn1c(=O)c2cc(C(=O)NC3CCCCCC3)sc2c2ccccc21`, the Potency was inconclusive [inhibitor, partial curve]. With `O=C(COC(=O)Cc1ccccc1F)Nc1cccc(S(=O)(=O)NC2=NCCCCC2)c1` the Potency was “inactive”. With `Cc1ccc(NC2=CC(=O)C(=O)c3ccccc32)cc1` the Potency was inconclusive [inhibitor, single point]. For `CC1(C)Cc2c(sc(NC(=O)c3ccc4ncsc4c3)c2C(N)=O)C(C)(C)N1`, the Potency was inconclusive [inhibitor, single point]. `CC1(C)CC(=O)C(N=Nc2c(Cl)cc(Cl)cc2Cl)=C(O)C1` was tested, and the Potency was “inactive”. For `COc1ccc([C@@H]2CC(=O)c3c(O)cc(O[C@@H]4O[C@H](CO)[C@@H](O)[C@H](O)[C@H]4O[C@@H]4O[C@@H](C)[C@H](O)[C@@H](O)[C@H]4O)cc3O2)cc1`, the Potency was “inactive”. With `COCCCn1c2nc3ccccc3nc2c2c(=O)n(Cc3ccc(Cl)cc3)cnc21` the Potency was “inactive”. `NCC(O)(CS(=O)(=O)O)c1ccc(Cl)cc1` (stereo not drawn) was tested, and the Potency was inconclusive [inhibitor, full curve]. `Cc1nc2c(C(=O)NCc3ccccc3Cl)cnn2c(C)c1Cc1c(F)cccc1Cl` was tested, and the Potency was “inactive”. With `CCCn1c(=O)c(C(=O)Nc2ncccc2O)c(O)c2ccccc21` the Potency was “inactive”. `CCC(C(=O)Nc1ccc(C(=O)OC)cc1)n1nc(-c2ccc(C)cc2)c2c(c1=O)CCCC2` (stereo not drawn) was tested, and the Potency was “inactive”. With `O=C1CSC(=S)N1/N=C/c1ccc(O)c([N+](=O)[O-])c1` the Potency was inconclusive [inhibitor, single point]. `Cc1ccc(N=C2NC(=O)/C(=C/C=C/c3ccco3)S2)cc1` was tested, and the Potency was active: 15.8 µM. With `Nc1ncc(Br)cc1N=Cc1ccccc1` the Potency was inconclusive [inhibitor, partial curve]. `CCOC(=O)c1sc(N=NC2=C(O)CCCC2=O)c(C(=O)OCC)c1C` was tested, and the Potency was inconclusive [inhibitor, single point]. With `O=C(O)CCN1C(=O)/C(=C\c2cccc(OCC(=O)Nc3ccc(Cl)cc3)c2)SC1=S` the Potency was inconclusive [inhibitor, single point]. `CC(C)c1ccc(Nc2nnc(SCC(=O)c3nnc(-c4ccccc4)o3)s2)cc1` was tested, and the Potency was inconclusive [inhibitor, partial curve]. `NC(=NCCCCCCN=C(N)/N=C(\N)Nc1ccc(Cl)cc1)/N=C(\N)Nc1ccc(Cl)cc1` was tested, and the Potency was inconclusive [inhibitor, single point]. With `CCN(C(=O)CSc1nnc(-c2cc(OC)c(OC)c(OC)c2)o1)c1ccccc1` the Potency was inconclusive [inhibitor, partial curve]. With `Cc1cccc(-n2ncc3c(N)ncnc32)c1` the Potency was inconclusive [inhibitor, partial curve]. In the case of `CCOc1ccc(CCNC(=O)c2nc(-c3cccc(F)c3)n3c2CCCCC3)cc1OCC`, the Potency is reported as active: 0.158 µM. For `O=C(CC1Nc2cccc3cccc(c23)NC1=O)Nc1ccccc1` (stereo not drawn), the Potency was inconclusive [inhibitor, full curve, poor fit]. `O=C1C(c2cccc(Br)c2)N(CCc2ccccc2)C(=O)CN1C1CCCCC1` (stereo not drawn) was tested, and the Potency was “inactive”.
